# Among all 350,000 compounds or so, about 31,000 (8.9%) were called active. Inconclusive results, whose numbers are uncertain, are shown with a selection of clear calls. Calls come from the whole dose curve; as a rule, active = well fitted inhibition curve with a large enough effect; inconclusive = small, poorly fitted or top-dose-only effect; inactive = no such curve, though single readings can be large or run the other way. Potencies of inconclusive entries are doubtful fits and often do not repeat.
# Molecular target: Histone-lysine N-methyltransferase EHMT2 (Homo sapiens) (UniProt Q96KQ7)
# Sequence of UniProt Q96KQ7 (Q96KQ7 whole entry, looked up): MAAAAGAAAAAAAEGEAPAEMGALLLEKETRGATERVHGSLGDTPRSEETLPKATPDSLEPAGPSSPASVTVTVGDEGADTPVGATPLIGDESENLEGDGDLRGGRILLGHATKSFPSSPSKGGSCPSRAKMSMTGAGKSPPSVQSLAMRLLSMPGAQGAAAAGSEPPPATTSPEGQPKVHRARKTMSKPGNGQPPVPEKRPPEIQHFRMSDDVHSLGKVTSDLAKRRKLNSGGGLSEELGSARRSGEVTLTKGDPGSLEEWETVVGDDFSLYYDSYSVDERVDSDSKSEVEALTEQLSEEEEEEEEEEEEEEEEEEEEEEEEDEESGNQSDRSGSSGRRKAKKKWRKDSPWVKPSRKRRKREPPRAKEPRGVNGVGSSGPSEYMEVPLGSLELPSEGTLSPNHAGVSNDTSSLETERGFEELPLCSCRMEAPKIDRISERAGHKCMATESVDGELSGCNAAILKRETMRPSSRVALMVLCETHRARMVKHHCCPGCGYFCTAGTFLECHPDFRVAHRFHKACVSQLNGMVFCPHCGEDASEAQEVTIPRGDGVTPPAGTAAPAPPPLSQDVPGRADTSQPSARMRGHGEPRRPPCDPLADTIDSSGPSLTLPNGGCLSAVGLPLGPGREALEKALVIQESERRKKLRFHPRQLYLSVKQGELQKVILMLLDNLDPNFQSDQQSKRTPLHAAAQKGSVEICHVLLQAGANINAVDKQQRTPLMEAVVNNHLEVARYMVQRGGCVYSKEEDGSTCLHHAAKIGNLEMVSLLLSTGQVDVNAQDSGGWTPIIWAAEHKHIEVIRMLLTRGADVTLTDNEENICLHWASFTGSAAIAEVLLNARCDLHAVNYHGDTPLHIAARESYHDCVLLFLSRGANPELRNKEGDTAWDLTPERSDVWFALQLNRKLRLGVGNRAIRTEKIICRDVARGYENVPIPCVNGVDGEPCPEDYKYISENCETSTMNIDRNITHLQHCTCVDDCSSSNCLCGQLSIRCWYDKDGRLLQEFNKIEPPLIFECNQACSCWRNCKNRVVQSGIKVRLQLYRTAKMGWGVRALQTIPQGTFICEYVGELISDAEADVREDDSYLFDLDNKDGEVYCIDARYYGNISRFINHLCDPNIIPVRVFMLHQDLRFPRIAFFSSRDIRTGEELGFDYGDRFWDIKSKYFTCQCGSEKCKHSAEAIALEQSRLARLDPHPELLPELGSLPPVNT
# Assay: qHTS Assay for Inhibitors of Histone Lysine Methyltransferase G9a; note: nearly all actives have a fitted effect of over 75% in size
# Details: G9a H3K9 monomethylation, AlphaScreen, 2 h; activity, negative = inhibition: at 59 µM (top of the series) unless noted
# In short: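 Signal arises when biotinylated H3K9 peptide, once monomethylated, bridges streptavidin donor and antibody-captured acceptor beads. Enzyme at 20 nM was preincubated 15 min with test compounds; peptide 500 nM and SAM 20 uM then reacted for 2 h.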
# % is set by controls: 0 for no effect and ±100 for the full control effect; potency is the fitted concentration of half-maximal effect; tags give direction and shape of the fitted curve.
SMILES,Potency,"activity, negative = inhibition"
c1ccc(N2CCN(c3ccccc3)C2c2cccnc2)cc1,"inconclusive: 17.8 µM [inhibitor, single point]",
COc1ccc(OC)c(S(=O)(=O)N(C)CC(=O)N2CCN(c3ccc(F)cc3)CC2)c1,"inconclusive: 79.4 µM [inhibitor, single point]",
c1ccc(C(c2nnnn2Cc2ccco2)N2CCN(C3CCCC3)CC2)cc1 (stereo not drawn),"inconclusive: 0.316 µM [inhibitor, full curve, poor fit]",
COc1ccc(OC)c(N=C(C)C2=C(O)COC2=O)c1,active: 3.55 µM,
O=C(NCCO)c1ccc2[nH]c3c(c2c1)CCCC3,"inconclusive: 17.8 µM [inhibitor, single point]",
CCc1c(C)sc(NC(=O)c2cc(-c3ccco3)on2)c1C#N,active: 12.6 µM,
O=C(O)c1cc2c(ccc3ccccc32)o1,"inconclusive: 89.1 µM [inhibitor, partial curve, poor fit]",
O=Cc1c(NC2CCCCC2)c2ccccc2[nH]c1=O,,inactive: -3.29% [at 102 µM]
COc1cc(-c2noc(-c3ccc(N4CCN(C)CC4)c([N+](=O)[O-])c3)n2)cc(OC)c1OC,"inconclusive: 35.5 µM [inhibitor, partial curve, poor fit]",
CC(=O)NCc1ccc(-c2csc(N)n2)s1,"inconclusive: 39.8 µM [inhibitor, single point]",
Cc1cc(C)n(-c2cc(N3CCN(C(=O)c4ccc(C(C)(C)C)cc4)CC3)ccc2[N+](=O)[O-])n1,"inconclusive: 20 µM [inhibitor, partial curve, poor fit]",
c1nc(NCCN2CCOCC2)c2c3c(sc2n1)CCCCC3,"inconclusive: 39.8 µM [inhibitor, single point]",
Cc1ccccc1CN1CCN(C(=O)c2cc(-c3ccncc3)nc3ccccc23)CC1,active: 35.5 µM,
Cc1onc(-c2ccccc2Cl)c1C(=O)O/N=C(\N)c1ccccc1,,inactive: 47.4% [at 102 µM]
O=C(Nc1nnc(-c2cccnc2)o1)c1ccccc1Cl,"inconclusive: 100 µM [inhibitor, single point]",
CN(C)c1nc(Cl)nc(NCCOc2ccccc2)n1,,inactive: -7.05% [at 102 µM]
CCC(CO)NC(=O)C(=O)Nc1c2c(nn1-c1ccc(F)cc1)CSC2 (stereo not drawn),"inconclusive: 25.1 µM [inhibitor, single point]",
CCCCCCCc1c(C#N)c(N)[nH]c(=S)c1C#N,"inconclusive: 10 µM [inhibitor, full curve, poor fit]",
O=C(O)c1ccc(/C=C2/SC(=S)N(Cc3ccccc3)C2=O)cc1,"inconclusive: 50.1 µM [inhibitor, partial curve, poor fit]",
CCCSc1nc2sc3c(c2c(=O)n1-c1ccc(OC)cc1)CCN(C)C3,"inconclusive: 79.4 µM [inhibitor, single point]",
CN(C)CCN(C(=O)C1CCN(S(=O)(=O)c2cccs2)CC1)c1nc2c(F)cccc2s1,"inconclusive: 12.6 µM [inhibitor, partial curve, poor fit]",
CCc1noc(C)c1C(=O)NCCc1ccc(S(N)(=O)=O)cc1,"inconclusive: 5.01 µM [inhibitor, partial curve, poor fit]",
Cc1csc(NC(=O)c2cc3c(s2)CCCC3)n1,"inconclusive: 79.4 µM [inhibitor, partial curve, poor fit]",

SMILES,Potency,"activity, negative = inhibition"
CCOC(=O)N1CCN(C(=O)c2ccc(-n3c(=S)[nH]c4ccccc4c3=O)cc2)CC1,"inconclusive: 39.8 µM [inhibitor, single point]",
COc1n[nH]c(C(=O)Nc2cc(F)ccc2C)c1[N+](=O)[O-],"inconclusive: 89.1 µM [inhibitor, partial curve, poor fit]",
Cc1ccsc1C(=O)N1CCN(S(=O)(=O)c2cccc(F)c2)CC1,active: 28.2 µM,
COc1ccc(S(=O)(=O)Nc2ccc(Cl)cn2)c(C)c1C,"inconclusive: 14.1 µM [inhibitor, partial curve, poor fit]",
CC1CCCC(C)N1S(=O)(=O)c1ccc(NC(=O)CCN2C(=O)C3CC=CCC3C2=O)cc1 (stereo not drawn),"inconclusive: 89.1 µM [inhibitor, single point]",
O=c1[nH]c2ccccc2cc1CN(Cc1ccco1)S(=O)(=O)c1ccccc1,"inconclusive: 89.1 µM [inhibitor, single point]",
Oc1c(C=Nc2cccnc2)sc2ccccc12,,inconclusive: -76.2% [inhibitor]
O=C(NCc1nnc2c(C(F)(F)F)cc(Cl)cn12)c1ccco1,,inactive: 3.63% [at 102 µM]
CC(OC(=O)C1CC(=O)N(Cc2ccco2)C1)C(=O)Nc1cccc(C#N)c1 (stereo not drawn),"inconclusive: 89.1 µM [inhibitor, single point]",
Oc1ccc(/C=N/Nc2ccnc3cc(Cl)ccc23)cc1O,,inconclusive: -91.7% [inhibitor]
COc1ccc(C2/C=C\CN(C(=O)NC(C)C)CC(=O)N2Cc2ccc(F)cc2)cc1 (stereo not drawn),,inactive: 8.5%
CC(Sc1nn(-c2ccc(Cl)cc2)c(=S)s1)C(=O)NCC1CCCO1 (stereo not drawn),,inactive: -32.1% [at 102 µM]
COc1ccc(N2C(=O)CC(N3CCN(c4nc5ccccc5s4)CC3)C2=O)cc1 (stereo not drawn),"inconclusive: 31.6 µM [inhibitor, single point]",
CNc1oc(-c2ccccc2Cl)nc1C#N,"inconclusive: 89.1 µM [inhibitor, single point]",
O=C(N/N=C/c1ccco1)C1CC1(c1ccccc1)c1ccccc1 (stereo not drawn),active: 39.8 µM,
CCOc1ccc(NC(=O)c2c(Nc3ccc(OC)cc3OC)sc(C(=O)c3ccc(Cl)cc3)c2N)cc1,"inconclusive: 10 µM [inhibitor, partial curve, poor fit]",
O=C(N[C@@H](c1ccccc1)[C@@H]1C[C@H]1C(=O)NCc1ccccn1)OCc1ccccc1,"inconclusive: 89.1 µM [inhibitor, single point]",
O=C(NNC(=S)Nc1ccc(F)c(Cl)c1)C1CC1,"inconclusive: 35.5 µM [inhibitor, partial curve, poor fit]",
CC1CCCCN1c1csc2ccc(F)cc2c1=O (stereo not drawn),"inconclusive: 28.2 µM [inhibitor, single point]",
COc1ccc(-n2c(CN3CCN(c4ccccn4)CC3)nc3ccc([N+](=O)[O-])cc3c2=O)c(OC)c1,active: 31.6 µM,
CCn1c(CSc2nc3ccccc3n2C)nc2ccccc21,"inconclusive: 35.5 µM [inhibitor, partial curve, poor fit]",
CCC(C)c1ccccc1NC(=O)Cc1coc2cc3c(cc12)CCC3 (stereo not drawn),"inconclusive: 28.2 µM [inhibitor, single point]",
CCN1/C(=C/c2ccc3cc(C)ccc3[n+]2CC)Sc2cc(C)c(C)cc21,active: 14.1 µM,

SMILES,Potency,"activity, negative = inhibition"
O=C(Nc1ccccc1C(=O)N1CCN(Cc2ccccc2)CC1)c1ccccn1,active: 14.1 µM,
COc1ccc(C2c3c(ccc4ccccc34)Oc3ncn4nc(-c5ccco5)nc4c32)cc1 (stereo not drawn),,inactive: -6.35%
COc1ccc(CC(=O)NCCS(=O)(=O)N2CCN(c3ccccc3)CC2)cc1,active: 44.7 µM,
CCCCN(C(=O)c1cccc2c(=O)c(C)c(-c3ccccc3)oc12)c1ccccc1,"inconclusive: 4.47 µM [inhibitor, single point]",
Cc1ccc(NC(=O)CSc2ccccc2NC(=O)c2ccccc2Cl)cc1Cl,,inactive: -2.51%
Cc1ccc(N/N=C(\C#N)C(=N)N2CCOCC2)cc1,"inconclusive: 25.1 µM [inhibitor, partial curve, poor fit]",
CCC(=O)Nc1ccc(-c2nnc(SCC(=O)NCC3CCCO3)n2C)cc1 (stereo not drawn),active: 8.91 µM,
COc1ccc(OC)c(CN2CCN(C(=O)c3ccc(S(=O)(=O)Nc4ccccc4F)cc3)CC2)c1,,inactive: 12.4% [at 12.7 µM]
O=C(c1cc2cc(F)ccc2[nH]1)N1CCN(c2ccc(F)cc2)CC1,,inactive: -8.91% [at 102 µM]
Cc1c(NC(=O)COC(=O)c2ccc[nH]c2=O)c(=O)n(-c2ccccc2)n1C,"inconclusive: 12.6 µM [inhibitor, single point]",
COc1ccccc1CNC(=O)[C@@H]1CCCN1C(=O)C1CCN(S(=O)(=O)c2ccc(C)cc2)CC1,"inconclusive: 89.1 µM [inhibitor, single point]",
Cc1ccc(-c2nc(SCC(=O)NCC3CCCO3)c(-c3ccc(Cl)cc3)[nH]2)cc1 (stereo not drawn),"inconclusive: 89.1 µM [inhibitor, single point]",
NC1=NC(=O)C2(COC(c3ccncc3)OC2)S1 (stereo not drawn),"inconclusive: 56.2 µM [inhibitor, partial curve, poor fit]",
CC(C)CNC(=O)C1CCN(c2ccc(S(=O)(=O)N3CCOCC3)cc2[N+](=O)[O-])CC1,,inactive: -22.6% [at 12.7 µM]
COc1cccc(NC(=O)CN(C)CC(=O)c2c(N)n(Cc3ccccc3)c(=O)n(C)c2=O)c1,,inactive: -2.39% [at 2.33 µM]
O=C1CC(N2CCN(c3ccccc3Cl)CC2)C(=O)N1c1ccccc1 (stereo not drawn),,inconclusive: -54.9% [inhibitor]
Cc1cc(-c2onc3ccc(Cl)cc23)ccc1O,active: 39.8 µM,
O=C1OC(/C(=C\Nc2cc(Cl)ccc2O)[N+](=O)[O-])c2ccccc21 (stereo not drawn),active: 10 µM,
Cc1cc(=O)c2c(O)c3c(O)cc(O)c4c5c(O)cc(O)c6c(O)c7c(=O)cc(C)c8c1c2c(c34)c(c65)c78,active: 8.91 µM,
N#CC1(NC(=O)COC(=O)c2nc(Cl)c(Cl)c(N)c2Cl)CCCCC1,"inconclusive: 89.1 µM [inhibitor, partial curve, poor fit]",
Cc1cc(OCCN2CCCC2)ccc1C(C)C,active: 8.91 µM,
COc1cccc(CNc2cccc3cccnc23)c1O,"inconclusive: 11.2 µM [inhibitor, partial curve, poor fit]",

# From PubChem BioAssay AID504332 (National Center for Advancing Translational Sciences (NCATS), 2011)
